± gives the standard deviation of the averaged measurements. Some of the results follow.
Tested on: PfAP2-EXP AP2 domain (GST-tagged)
Experiment: gcPBM binding intensity (ln(normalized median fluorescence intensity)); higher = stronger DNA binding
Summary of the method: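 GST-fused DNA-binding domains of P. falciparum, expressed in E. coli, were applied at about 25 μg on average for 1 h to an Agilent 4 × 180k array of primer-extended double-stranded 36-bp intergenic genomic probes and negative controls. Binding intensity is the highest Masliner-normalised natural-log median intensity across replicate spots of either probe orientation, measured with Alexa488 anti-GST antibody and a 488 nm scan.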

Sequence | gcPBM binding intensity (ln)
TATTTTATGTAAATTGGTACACATATGTCAGTAAAA [XGTACX_site7111] | 8.83 ± 0.58
TTTCATATTTTGTCCTGTTTTTTTTTTTTTTTTCTT [CACACA_negctrl_site993] | 8.62 ± 0.51
TTTTGAATATTTGGTCGTACGTAAAAATAGATAATT [XGTACX_site5755] | 8.82 ± 0.39
AAAATATAAAAAGTCACACATATATATATTTATTTA [CACACA_site4872] | 8.18 ± 0.47
TTGAATGAAAAAATTTGTACTCATATAAATAATTTA [XGTACX_site4628] | 8.18 ± 0.35
CAATAATTTTTTGTGGGTACAAATAATTTTTTAAAT [XGTACX_site2407] | 8.22 ± 0.35
AGGAGAAAAGATAAAGACTTCAAGAAAAAAAAATAA [TGCATGCA_negctrl_site258] | 8.62 ± 0.32
TAACAAAACCTTATATGTACACACATATACATCACA [XGTACX_site6772] | 8.51 ± 0.25
TTATCATTTTAAATCACACACATATATATATATATA [CACACA_site2849] | 10.1 ± 0.49
TTAAAAATGAACATATGTACATATATATATATATAT [XGTACX_site7923] | 10.2 ± 0.41
ACTACAAGGCAATACAGTACATATAAATGTCATAAT [XGTACX_site8468] | 8.8 ± 0.35
AAAAAGGTTATTGGTACACACATATGTATTTATATA [CACACA_site4464] | 8.54 ± 0.4
TACCTTTTATTAATGTGTACCTAAAATATAATACTT [XGTACX_site192] | 8.46 ± 0.52
TACATATTTATATACACACACACCCTAAAAATATAT [CACACA_site6861] | 8.94 ± 0.39
AAAAGAATTACTTTCACACATATATATCTGTAAATA [CACACA_site5798] | 8.24 ± 0.47
ATAATTTTTTTTTTTTTTTTTTGAAAGTAGCATATG [CACACA_negctrl_site732] | 8.01 ± 0.48
AATAATGAAGCTTATGCACACGTTCATTATTTATAT [CACACA_site5736] | 8.73 ± 0.38
TAATATCAATATAAAGTACACACTATAGTATGTATT [CACACA_site2280] | 8.31 ± 0.29
ATATCTTTGCAAAGATGTACTTGTAAAAATATATGA [XGTACX_site768] | 8.66 ± 0.4
TATATATATATATATATACACACGTATATATATACA [CACACA_site4155] | 9.97 ± 0.63
TATAATAAAACTTTTACACACTTTAAAAAAAAAAAA [CACACA_site6392] | 8.24 ± 0.35
GACCCACTTTTCTGCACACATAAAAAATATATAAAT [CACACA_site4483] | 8.92 ± 0.21

Sequence | gcPBM binding intensity (ln)
TAAAAGTAAAGACATGCATGCATTGGTATCTTTTAC [TGCATGCA_site665] | 9.73 ± 0.085
TTTATATTTAAATATATATGAGAAAACACAAAATAT [TGCATGCA_negctrl_site211] | 8.68 ± 0.48
GCTTCATTTTAAACTTGTACTTATTTTTTGGTAAAT [XGTACX_site8879] | 9 ± 0.3
TAGTTACTTCTTATATAAAATATGTATATAAAAATA [GTGCAC_negctrl_site190] | 8.1 ± 0.35
ACATATTAATTATAAAGTACATATATATATATATAT [XGTACX_site4540] | 10.3 ± 0.18
TCTCTCATTTATTTTTGTACTTAATCCAGCACGTTT [XGTACX_site1369] | 8.96 ± 0.54
TTGTTTGTTGTAACGTGTACAGATAAAAATAAAGGG [XGTACX_site375] | 9.29 ± 0.55
TTCATATTATAGTGCACACAAAAATATATATATGGT [CACACA_site2855] | 9.22 ± 0.28
TAAATTAATACCTATGCACACATTTTTTTTTTTAAA [CACACA_site1238] | 8.38 ± 0.32
AAATTATCTTAATAGGATGTTCAAGGAGAAAGATGA [CACACA_negctrl_site1032] | 8.67 ± 0.52
TTTATTATAATATGTTGTACAAGACGTTTCAGTATA [XGTACX_site4486] | 8.77 ± 0.28
CTTAAATTTTTAAATACACACATACACCCATACACA [CACACA_site4461] | 8.93 ± 0.43
TTTTTTTTAAATATCACACACATATAATATATTCTA [CACACA_site3668] | 8.2 ± 0.45
AAACCCTATTCAATGCAATAATTTTATAATTTTTTT [TGCATGCA_negctrl_site434] | 8.28 ± 0.45
AACATGTATATATTATGTACATATGTTAAAATGATA [XGTACX_site6217] | 8.77 ± 0.41
ATAGTTTTATATAAATGTACAAATGATTTCAAATAG [XGTACX_site8236] | 8.54 ± 0.28
TAGCGGCGGTATCATGCACACGTATATATTGTAACA [CACACA_site8453] | 8.71 ± 0.52
GAGTTAATTTTTTCGTGTACTTGAAAATATTTTTTT [XGTACX_site6392] | 8.8 ± 0.25
TTTTCTTACACGAATTTTAAATTCAATATTAAACAT [CACACA_negctrl_site286] | 8.62 ± 0.33
TTACCTTTTTCTAATGGTACACATAAAATATCATTT [XGTACX_site6825] | 8.36 ± 0.28
GTGGAAATATAACACATTTTTTTTAATAATTATATT [TGCATGCA_negctrl_site522] | 8.08 ± 0.21
TTAGCAACTATTACTACACACATTTGTATATAACTT [CACACA_site6850] | 8.62 ± 0.33

Reference: the supplement of paper PMC11417369
